Source: paper PMC4914337
These are yes or no findings as the source states them, for the method shown. For some assays here: In cells and extracts the contact can be indirect. Some results given as binding are weak or reduced against the parent protein; the word gives no strength.

Protein sequences, listed by entry. Tags and fused reporters are not part of them. Lines headed by an entry give the natural chain unless they say otherwise; changes in a name come on top. Chains listed by the source or under a name are the forms on record and can include a tag or linker. Residues count along the entry.
UniProt P10451, residues 17-314: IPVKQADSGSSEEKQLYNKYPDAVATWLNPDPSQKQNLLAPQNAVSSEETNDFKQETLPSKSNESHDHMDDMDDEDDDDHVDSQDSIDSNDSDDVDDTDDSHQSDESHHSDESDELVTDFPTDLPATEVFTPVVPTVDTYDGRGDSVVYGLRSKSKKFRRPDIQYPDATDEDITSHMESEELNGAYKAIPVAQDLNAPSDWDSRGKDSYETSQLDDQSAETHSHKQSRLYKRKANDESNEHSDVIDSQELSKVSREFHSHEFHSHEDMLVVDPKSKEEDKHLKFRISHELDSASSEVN
UniProt P08670: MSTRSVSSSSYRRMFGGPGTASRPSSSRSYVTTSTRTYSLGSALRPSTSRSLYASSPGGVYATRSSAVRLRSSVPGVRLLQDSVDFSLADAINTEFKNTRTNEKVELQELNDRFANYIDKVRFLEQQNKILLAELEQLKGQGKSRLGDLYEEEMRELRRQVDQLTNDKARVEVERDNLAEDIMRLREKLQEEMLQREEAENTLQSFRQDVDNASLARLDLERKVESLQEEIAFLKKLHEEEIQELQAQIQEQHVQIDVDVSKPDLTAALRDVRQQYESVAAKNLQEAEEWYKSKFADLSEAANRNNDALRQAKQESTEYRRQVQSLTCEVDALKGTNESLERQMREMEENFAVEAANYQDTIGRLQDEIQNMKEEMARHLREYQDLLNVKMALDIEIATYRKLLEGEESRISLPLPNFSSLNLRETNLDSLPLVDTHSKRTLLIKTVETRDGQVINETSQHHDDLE
His-EGFP-tagged vimentin VIM97-466, purified from HEK-293T cells: residues 97-466 of P08670
His-EGFP-tagged vimentin VIM 246-466, purified from HEK-293T cells: residues 246-466 of P08670

Key:
[1] = target: Flag-OPN (osteopontin) expressed in MHCC-97L cells (UniProt P10451); assay: co-IP; HCC cells (Hep3B, MHCC-97L) transfected with Flag-OPN or Flag-vimentin, empty vector as control; RIPA lysate on M2 anti-Flag mAb agarose beads overnight at 4°C, five washes with RIPA, elution with Flag peptide; immunoblot with reciprocal antibodies
[2] = target: Flag-OPN (osteopontin) expressed in MHCC-97L cells (UniProt P10451); assay: co-IP; MHCC97L cells co-transfected with EGFP-tagged vimentin deletion mutants and the OPN-Flag construct; lysates precipitated with anti-Flag beads; immunoblot with anti-EGFP and anti-Flag
[3] = target: His-EGFP-tagged vimentin VIM97-466, purified from HEK-293T cells (human) (UniProt P08670); assay: pull-down; in vitro binding assay: 2 μg FLAG-OPN with about the same amount of His-EGFP-tagged vimentin proteins in 0.2% Triton X-100, 50 mM Tris-Cl pH 7.5, 100 mM NaCl, 15 mM EGTA, 1 mM DTT; pulled down with Anti-His Affinity Resin, four washes (0.5% Triton X-100); Western blot; both purified
[4] = target: His-EGFP-tagged vimentin VIM 246-466, purified from HEK-293T cells (human) (UniProt P08670); assay: as above
[5] = target: Flag-vimentin expressed in MHCC-97L cells (human) (UniProt P08670); assay: co-IP; HCC cells (Hep3B, MHCC-97L) transfected with Flag-OPN or Flag-vimentin, empty vector as control; RIPA lysate on M2 anti-Flag mAb agarose beads overnight at 4°C, five washes with RIPA, elution with Flag peptide; immunoblot with reciprocal antibodies
[6] = target: Flag-OPN (osteopontin) produced in Hep3B cells (UniProt P10451); assay: as above

| Substance | binding [2] | other results |
| --- | --- | --- |
| vimentin, endogenous full-length, in MHCC-97L cells (from UniProt P08670 1-466) | binds | binding [1]: binds |
| EGFP-tagged vimentin deletion mutant VIM1-96, in MHCC97L cells (from UniProt P08670 1-96) (domain or fragment) | no binding | – |
| EGFP-tagged vimentin deletion mutant VIM97-466, in MHCC97L cells (from UniProt P08670 97-466) (domain or fragment) | binds | – |
| EGFP-tagged vimentin deletion mutant VIM407-466, in MHCC97L cells (from UniProt P08670 407-466) (domain or fragment) | no binding | – |
| EGFP-tagged vimentin deletion mutant VIM 246-466, in MHCC97L cells (from UniProt P08670 246-466) (domain or fragment) | binds | – |
| FLAG-OPN protein purified from HEK-293T cells (from UniProt P10451 17-314) | – | binding [3]: binds; binding [4]: binds |
| OPN (osteopontin) in MHCC-97L cells transfected with Flag-vimentin (from UniProt P10451 17-314) | – | binding [5]: binds |
| vimentin, endogenous in Hep3B cells (from UniProt P08670 1-466) | – | binding [6]: binds |
| EGFP-tagged vimentin deletion mutant VIM1-245, in MHCC97L cells (from UniProt P08670 1-245) (domain or fragment) | no binding | – |
